# Laboratory results taken from paper PMC5515408.
# This is one part of the list. At the low end of the ranking the order means little.
# Molecular target: MAX:MAX (p21) (UniProt P61244-2)
# Experiment: protein-binding microarray (anti-MAX antibody)
# Details: PBM: 15 mM Tris-HCl pH 7.5, 100 mM KCl, 0.075% NP40, 7.5 mM beta-mercaptoethanol, 375 ng/ul BSA, 8 ng/ul poly(dA-dT):(dA-dT), 550 ng complex, 60 min, room …; high values mean tight binding; double strand, one strand shown; sequences stand for … in CCGGC…TTAATAGCTAAGATTACTATATCGACG
row,Sequence,binding signal (log2 normalized fluorescence)
1,TGAGCCGATGTA,-0.683
2,TGAAAACTCGTA,-0.502
3,TGACCTGGGGTA,0.0286
4,TGAGGCACGGTA,0.498
5,TGATCTTCCGTA,-1.11
6,TGAGGTCAAGTA,-0.669
7,TGACCAACTGTA,-0.224
8,TGAAGCACTGTA,0.287
9,TGACTTTGTGTA,-0.492
10,TGAGTGGATGTA,0.0423
11,TGAGTACTCGTA,-0.771
12,TGACGCGTGGCA,3.12
13,TGAGTGAGGGTA,-0.0605
14,TGACTTTCTGTA,-0.943
15,TGATGGCAAGTA,0.257
16,TGACACTTGGCA,0.568
17,TGACGTCCTGTA,-0.423
18,TTACACGTTGTC,3.27
19,TGATCGTCAGTA,-0.695
20,TGACCAGAGGTA,-0.618
21,TGATCGATCGTA,-0.949
22,TGAAATTACGTA,-0.721
23,TGACTGGGGGTA,1.41
24,TGAAGCATTGTA,1.13
25,TGGTACGTGGTA,1.19

row,Sequence,binding signal (log2 normalized fluorescence)
1,TGATAATGCGTA,-0.015
2,TGAGGTCCCGTA,-0.331
3,TGACGGTGTGTA,0.665
4,TGAACATCGGTA,-0.121
5,TGACTTAACGTA,-0.215
6,TGACAGATGGTA,1.4
7,TGAGATCGTGTA,0.277
8,TGATACGAAGTA,-0.744
9,TGATCATGTGTA,2.73
10,TGATCAGGAGTA,0.593
11,TGATCCTGGGTA,-0.943
12,TGACAGCCTGTA,0.72
13,TGAACTCCGGTA,-0.81
14,TGACAGGTTGTA,0.711
15,TGATCACTCGTA,-0.292
16,CTACACGTGGTA,3.31
17,TGATTCTTTGTA,-1.29
18,TAACACAAGGTA,2.35
19,TGATACATTGTA,-0.543
20,TGATCATACGTA,0.302
21,TGACGTTTAGTA,-0.408
22,TGAGACAGCGTA,-0.544
23,TGACGCTGGGTA,-0.533
24,TGAGACCGAGTA,-1.05
25,TGATAATCGGTA,-1.07

row,Sequence,binding signal (log2 normalized fluorescence)
1,TGAAGAGATGTA,-0.412
2,TGAAAGGAAGTA,-0.663
3,TGATAATGGGTA,-0.612
4,AGGCACGTGGTA,3.21
5,TGAATCAACGTA,-0.41
6,TGATGCTCGGTA,0.119
7,TGAGCAGATGTA,0.957
8,TGAAGTGACGTA,-0.131
9,TGAGTGTTTGTA,-0.151
10,TGAGGATGTGTA,-0.391
11,TGAATTCTCGTA,-0.722
12,TGAATAGCTGTA,-0.726
13,TGAGACAGGGTA,-0.698
14,TGAGCCATCGTA,-0.647
15,TGATAGGGAGTA,-0.901
16,TGATGGATAGTA,-0.261
17,TGGCACAAGGTA,2.04
18,TGAGTACAAGTA,-0.809
19,TGACCCTAAGTA,-0.499
20,TGAGCAGGTGTA,1.83
21,TGAGTCCACGTA,0.193
22,TGATCCCGGGTA,-0.935
23,TGAGAACGCGTA,0.0351
24,TGACTCCGCGTA,-0.516
25,TGATGGCGGGTA,0.267

row,Sequence,binding signal (log2 normalized fluorescence)
1,TGACCTTGCGTA,0.58
2,TGACAAGGAGTA,-0.357
3,TGAGTGCGTGTA,1.52
4,TGAGGCGATGTA,-0.618
5,TGACTAGCTGTA,-1.13
6,TGAGTTAGAGTA,-0.886
7,TGAGACGCGGTA,-0.302
8,TGAATATCTGTA,-1.31
9,TGAGGGCTCGTA,-0.526
10,TGACGGCTCGTA,-0.779
11,TGACAGCATGTA,2.89
12,TGAACCGCTGTA,-0.243
13,TGAAGGGTAGTA,-0.817
14,TGAACACTAGTA,-0.147
15,TGACGAGTCGTA,-0.648
16,TGATATGTAGTA,-0.885
17,TGACCAACCGTA,-0.232
18,TGATTGGTTGTA,-0.814
19,TGAGCTTGAGTA,-0.795
20,TGACACGTGGGT,3.39
21,TGAGCAGTGGTA,-0.514
22,TGATATTTAGTA,-1.26
23,TGACACGGTATA,1.17
24,TGACGTCTCGTA,-0.639
25,TGACAGGTGCTG,2.38

row,Sequence,binding signal (log2 normalized fluorescence)
1,CAAATGAGAGCC,-0.0499
2,AGACACGCAGTA,2.67
3,TGAATCCTAGTA,-0.835
4,TGAACTAAAGTA,-0.827
5,AGATTTCGGACA,-0.526
6,TGAAGCCACGTA,0.619
7,TGACACCTGGAA,1.65
8,TGAGTTGGAGTA,-1.05
9,TGAAAGCTTGTA,-0.547
10,TGAGGATAGGTA,-0.724
11,TGAATTCCAGTA,-0.837
12,TGAAGCTTTGTA,-0.703
13,TGAAGGCAGGTA,-0.449
14,TGAAACGCAGTA,-0.19
15,TGATCTGCGGTA,-0.623
16,TCACACGTGGTA,3.33
17,TGAGACGTGATA,0.863
18,TGAGTTCCGGTA,-1.06
19,TGAGCTAACGTA,-0.965
20,GGACTCGTGGTA,3.3
21,TGACCCCAAGTA,-0.188
22,TGAAGCGTGTTA,2.97
23,TGACACTTCGTC,-0.311
24,TGATGGGTGGTA,0.522
25,TGATAGAGTGTA,-0.76

row,Sequence,binding signal (log2 normalized fluorescence)
1,TGATTAAGTGTA,-0.71
2,TGAACCTCGGTA,-0.351
3,TGATGTGGTGTA,0.281
4,TGACACAATGTA,0.834
5,TGATACGTGTTG,0.944
6,TGACGGCTGGTA,-0.329
7,TGAGGAAGGGTA,-0.319
8,TGACTGGATGTA,-0.202
9,TGATAAACAGTA,-0.726
10,TGATAGCTTGTA,-0.931
11,TGACAGTAAGTA,-0.0584
12,TGACTCTGAGTA,-1.05
13,TAGGTCAGAGCC,-1.32
14,TGAGATGGCGTA,-0.529
15,TGAGGTACCGTA,-0.177
16,TGAAAGCCTGTA,-0.0129
17,TGAAATGCGGTA,0.988
18,TGAACGGCAGTA,-0.447
19,TGAGGGACTGTA,-0.287
20,TGAGTAAAGGTA,-0.964
21,TGACCGACAGTA,-0.69
22,TGACCGCTGGTA,-0.203
23,TGATATTGGGTA,-1.18
24,TGAGTACCAGTA,-0.705
25,TGAGAATGAGTA,-0.499

row,Sequence,binding signal (log2 normalized fluorescence)
1,TGAGCCCAGGTA,-0.848
2,TGATTGTCTGTA,-0.83
3,AAGTTTAAGCCG,-0.829
4,TGATGCGGCGTA,-0.112
5,GTACACGTGGTC,3.35
6,TGATAAACTGTA,-0.922
7,TGACTCGGGGTA,0.137
8,TGAGGTTGGGTA,-0.698
9,TGTCAGGTGCTA,2.69
10,TGAGGCCTGGTA,0.158
11,TGAACCCGTGTA,1.7
12,TGAGTGAACGTA,-0.316
13,TTAAGCGTGGTA,3
14,TGATTAACAGTA,-0.841
15,TGAGGATAAGTA,-0.954
16,TGAAAAATAGTA,-1.16
17,TGATGGGCTGTA,0.354
18,TGAATATATGTA,-0.974
19,TGACGGTATGTA,-0.0601
20,TGACAGCTTGTA,-0.208
21,TGACCACGCGTA,2.94
22,GCTGGTAGCGCC,-0.949
23,TTGTACGTGGTA,1.39
24,TGAAATAACGTA,-0.543
25,TGAGTGCGAGTA,0.137
